In all, about 420,000 compounds went through this assay and about 64,000 (15%) were called active. The shares of active, inactive and inconclusive entries below differ from those in the screen. The call rests on the fitted dose curve; in most records, active means well fitted inhibition curve with a large enough effect; inconclusive means small, poorly fitted or top-dose-only effect; inactive means flat fitted curve, though single readings scatter. Potencies of inconclusive entries are left out as doubtful fits.
Experiment: qHTS for Inhibitors of human tyrosyl-DNA phosphodiesterase 1 (TDP1): qHTS in cells in absence of CPT; further: nearly all actives have a fitted effect of over 55% in size
Conditions: DT40 Tdp1-/- hTDP1 cells, no CPT, ATP luminescence, 48 h; activity change, negative = growth inhibition: at 46.2 µM (top of the series) unless noted
Procedure, shortened: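 Stably hTDP1-transfected Tdp1-null chicken DT40 cells were treated with library compounds minus camptothecin and grown for at least 48 hr at 37 °C, after which cellular ATP was quantified by luminescence.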
On the % scale 0 is the no-effect control and ±100 the full control effect; potency means the concentration at half of the fitted maximal effect; tags describe the fitted curve by direction and shape.

Row | Compound | Potency | activity change, negative = growth inhibition
1 | CCOC(=O)C1CCN(c2ccc(-c3cccs3)nn2)CC1 | inconclusive [inhibitor, partial curve] | –
2 | Cc1cc(C)cc(-n2c(C)cc(/C=N/NC(=O)CSc3ncccn3)c2C)c1 | inconclusive [inhibitor, single point] | –
3 | COc1ccc(NC(=O)CSc2nc3c(c(=O)n2-c2ccccc2)SCC3)c(OC)c1 | inconclusive [inhibitor, full curve, poor fit] | –
4 | Cc1ccccc1N1C(=O)C(Oc2ccc(Cl)cc2)C1CNC(C)(C)C (stereo not given) | inconclusive [inhibitor, single point] | –
5 | CC(C)c1ccc(NC(=O)COc2ccc(C3SCCS3)cc2)cc1 | active: 23.1 µM | –
6 | O=C(CCN1C(=O)C2CCCCC2C1=O)Nc1nc(-c2ccccc2)cs1 (stereo not given) | inconclusive [inhibitor, single point] | –
7 | Cc1cc(C)c(S(=O)(=O)Nc2cccc(S(=O)(=O)N3CCOCC3)c2)c(C)c1 | – | inactive: -4.58%
8 | CCOC(=O)C1=C(C)N(C)C(=S)NC1c1ccccc1 (stereo not given) | inconclusive [inhibitor, single point] | –
9 | CC1CCCCC12NC(=O)N(CC(=O)OCC(=O)NC(=O)c1ccccc1)C2=O (stereo not given) | – | inactive: 27.1%
10 | O=C1NC(=O)[C@H]2[C@@H]1[C@@H]1C=C[C@H]2C1 | – | inactive: 0.198%
11 | CC12CCC(=O)N1C(C(=O)Nc1cccc(S(=O)(=O)N3CCCCC3)c1)CS2 (stereo not given) | inconclusive [inhibitor, partial curve] | –
12 | CC(C)(C)NC(=O)CCN(/N=C/c1ccccc1)C1=NS(=O)(=O)c2ccccc21 | active: 16.4 µM | –
13 | O=C(Nc1ccc(N2CCCC2)cc1)c1ccccc1F | inconclusive [inhibitor, full curve, poor fit] | –
14 | COCCNc1nc(Nc2ccccc2Cl)c2sccc2n1 | active: 23.1 µM | –
15 | Cc1ccc(NC(=O)COc2cccc(-n3cnnn3)c2)cc1[N+](=O)[O-] | inconclusive [inhibitor, partial curve] | –
16 | CCOC(=O)CN1C(=O)C(O)(CC(=O)c2cc(OC)ccc2OC)c2ccccc21 (stereo not given) | inconclusive [inhibitor, single point] | –
17 | COc1ccc([N+](=O)[O-])cc1COc1cc(C)cc2oc(=O)cc(-c3ccccc3)c12 | inconclusive [inhibitor, single point] | –
18 | COCCNC(=O)CSc1nc2ccccc2c(=O)n1CCCC(=O)NCc1ccccc1 | – | inactive: -12.1%
19 | O=S1(=O)c2ccccc2N(Cc2ccccc2)c2ccccc21 | – | inactive: -5.93%
20 | COc1cc(CNCc2cccnc2)ccc1OCc1ccccc1 | inconclusive [inhibitor, partial curve, poor fit] | –
